{
  "source": "the supplement of paper PMC4604168 (melanoma cell lines)",
  "note": "This is one part of the list. Many values rest on one well or one pass, so single values are uncertain.",
  "data": [
    {"system": "WM115", "experiment": "cell count relative to DMSO control; melanoma cells; higher = more viable cells", "conditions": "library dose: standard library concentration; 72 h", "units": {"cell count": "%"}, "values": [
      {"compound": "O=C(/C=C/c1cccnc1)NCCCCC1CCN(C(=O)c2ccccc2)CC1", "note": "+ O=C(O)C(=O)Nc1sc2c(c1C(=O)O)CCNC2 [TCS401] (first compound 0.05 µM, partner dose 8.33333 µM);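 also: cells treated in 1,536-well plates, then fixed and DAPI-stained, with nuclei counted from automated high-throughput microscope images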", "cell count": 83},
      {"compound": "O=C(/C=C/c1cccnc1)NCCCCC1CCN(C(=O)c2ccccc2)CC1", "note": "+ O=C(Nc1ccccc1)c1cc([N+](=O)[O-])ccc1Cl [GW9662] (first compound 0.05 µM, partner dose 10 µM)", "cell count": 78},
      {"compound": "CC1(C)CCC(c2ccc(Cl)cc2)=C(CN2CCN(c3ccc(C(=O)NS(=O)(=O)c4ccc(N[C@H](CCN5CCOCC5)CSc5ccccc5)c(S(=O)(=O)C(F)(F)F)c4)cc3)CC2)C1", "note": "+ N#Cc1c(O)c2c(-c3ccc(-c4ccccc4O)cc3)csc2[nH]c1=O [A769662] (first compound 2 µM, partner dose 10 µM)", "cell count": 85.9},
      {"compound": "CC1(C)CCC(c2ccc(Cl)cc2)=C(CN2CCN(c3ccc(C(=O)NS(=O)(=O)c4ccc(N[C@H](CCN5CCOCC5)CSc5ccccc5)c(S(=O)(=O)C(F)(F)F)c4)cc3)CC2)C1", "note": "+ COc1cc2ncnc(Nc3ccc(Oc4ccccc4)cc3)c2cc1OC [SrcI1] (first compound 2 µM, partner dose 10 µM)", "cell count": 43.2},
      {"compound": "O=C(/C=C/c1cccnc1)NCCCCC1CCN(C(=O)c2ccccc2)CC1", "note": "+ N#Cc1c(O)c2c(-c3ccc(-c4ccccc4O)cc3)csc2[nH]c1=O [A769662] (first compound 0.05 µM, partner dose 10 µM)", "cell count": 90.6}
    ]}
  ]
}
